In patent publication US20220125947A1 (published 2022):
Substitutions are numbered along the chain they refer to. Blank lines part the entries; values can stand above or below the binder they belong to.

Tests used:
[1] = biological target: T1, γδ T cell receptor on human γδ T cells (human); experiment: flow cytometry DRC binding 37 C, human γδ T cells
T1 construct: whole, on cells; Target is the γδ TCR on a mixed population of human γδ T cells; also called AG000003021 (γδ T cells)
Method: (§1) Binding of antibodies to human γδ T cells or SKW cell lines expressing Vγ9/Vδ2, Vγ9/Vδ2 or Vγ5/Vδ2 was carried out by flow cytometry. Briefly, the cells were centrifuged at 300×g for 5 minutes and the pellet was resuspended in 34 ml fresh media (in RPMI+10% FBS). 50 μL of the cells were then plated (44K cells/well) into assay plates. Samples were incubated for one hour at 37° C. in tissue culture (TC) incubator followed by wash steps by adding 100 μl FACS staining buffer. Secondary detention antibodies (A647 conjugated anti-human IgG Fc specific antibody (2 μg/mL) along with AF488 anti mouse CD3, clone OKT3 at 1 ug/mL) were added at 50 μL/well to appropriate wells according to the plate map. After incubating for 60 minutes at 37° C. in the TC incubator, cells were again washed as described above. This is followed by resuspension in 20 μL/well running buffer containing 1:1000 dilution of Sytox blue dead cell stain and the plates were run on iQue Screener.
(§2) Gating and data analysis: Human anti-human Vγ9 antibody (VG9B2 mAb at 10 nM) was used to mark the gating of positive population. […] Cells were also assessed for cell binding of control mAbs by RL1 (A647) Geomeans from the live cell population. […]

[2] = biological target: γδ T cell receptor on human γδ T cells (AG000003021) (human); experiment: flow cytometry, DRC binding at 37°C on human γδ T cells
Method: as §1, §2

- Max. Activity [1]: 1970 fold over background
B1: VG9B371 (antibody, human IgG1, kappa)
heavy: EVQLLESGGGLVKPGGSLRLSCAASRFTLSSYDMNWVRQAPGKGLEWVSSISSSSSYIYYADSVKGRFTISRDNAKNSLYLQMNSLRAEDTAVYYCARDRGVGGTDYYYYGLDVWGQGTTVTVSS[human IgG1 constant region omitted here]
light: [about 100 residues omitted here][about 100 residues omitted here]
notes: IgG1, kappa; specificity column: g/d constant

- Max. Activity [1]: 2480 fold over background
B2: VG9B399 (antibody, human IgG1, kappa)
heavy: EVQLVESGGGLVKPGGSLRLSCSASGFTFSNYDMNWVRQAPGKGLEWVSSISSSSSYIYYADSVKGRFTISRDNAKNSLYLQMNSLRAEDTAVYHCARDVGVTTDYYYYGMDVWGQGTMVTVSS[human IgG1 constant region omitted here]
light: ETTLTQSPGTLSLSPGDRATLSCRASQSVASSYLAWYQQKPGQSPRLLIYGASSRATGIPDRFSGSGSGTDFTLTISRLEPEDFAVYYCQQYGSSPPYTFGQGTKVDIKRTVAAPSVFIFPPSDEQLKSGTASVVCLLNNFYPREAKVQWKVDNALQSGNSQESVTEQDSKDSTYSLSSTLTLSKADYEKHKVYACEVTHQGLSSPVTKSFNRGEC
notes: as for B1

- Max. Activity [2]: 3080 fold over background
B3: VG9B415 (antibody, human IgG1, kappa)
heavy: B2 heavy with M119T
light: B2 light with V106L, D107E
notes: IgG1, kappa
